Reference: PubChem BioAssay AID686971 (National Center for Advancing Translational Sciences (NCATS), 2013)
Values joined by “and” are separate entries in the source; they are usually repeats but may differ in a detail not shown here. Equal entries are not always repeated. About 7,500 (2.1%) of roughly 360,000 compounds were called active. The inconclusive results got no clear call from the source; some entries with a clear call stand among them for comparison. The call rests on the fitted dose curve; in most records, active means well fitted cell-killing curve with a large enough effect; inconclusive means small, poorly fitted or top-dose-only effect, or effect the other way, or another doubt; inactive means no such curve, though single readings can be large or run the other way. Where the call is inconclusive, the potency comes from a doubtful curve fit.

assay: qHTS for induction of synthetic lethality in tumor cells producing 2HG: qHTS for the HT-1080-IDH1KD cell line; details: HT-1080 IDH1 knockdown viability, ATP luminescence, 48 h; activity, negative = toxicity: at 46.1 µM (top of the series) unless noted;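 on activity, negative = toxicity: 0% = DMSO wells and -100% = cell-free medium wells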
Summary of the method: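 % activity derives from luminescence (CellTiter-Glo), normalised to DMSO and no-cell wells. HT-1080-IDH1KD cells, 750/well, had 48 h compound exposure at 37 °C.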
Potency means the concentration at half of the fitted maximal effect; tags describe the fitted curve by direction and shape.

Compound | Potency | activity, negative = toxicity
CC(=O)Nc1cccc(-c2ccnc3c2CC(C(=O)NCc2ccc(N(C)C)cc2)O3)c1 (stereo unspecified) | inconclusive: 18.4 µM [cytotoxic, single point] | 
COc1cc(OC)cc(C(=O)Nc2ccc3c(c2)CCCN3C(=O)c2cccs2)c1 | inconclusive: 5.17 µM [cytotoxic, partial curve] | 
COc1ccc(-n2cc(-c3ccccc3)[nH]c2=S)c(OC)c1 | inconclusive: 29.1 µM [cytotoxic, single point] | 
COc1ccc(C(C)=O)cc1CSc1nnc(Nc2ccccc2)s1 | inconclusive: 16.4 µM [cytotoxic, single point] | 
CCOc1ccc(C2c3cc(OC)c(OC)cc3CC(=O)N2c2ccc(OC)cc2)cc1 (stereo unspecified) | inconclusive: 22.4 µM [cytotoxic, single point] | 
CCCN(C1CCS(=O)(=O)C1)S(=O)(=O)c1ccc(F)cc1 (stereo unspecified) |  | inactive: 1.93%
COC(=O)C1CCN(C(=O)c2cc(S(=O)(=O)N3CCCCC3)ccc2Cl)CC1 |  | inactive: 5.43%
O=C1CCC(C(=O)N2CCCC(C(=O)c3ccc4c5c(cccc35)CC4)C2)=NN1 (stereo unspecified) | inconclusive: 29.1 µM [cytotoxic, single point] | 
CC(C)(C)CC(C)(C)NCC(O)COc1c(F)cc(Br)cc1F (stereo unspecified) | active: 20.6 µM | 
CC/C(=C(\c1ccccc1)c1ccc(OCCN(C)C)cc1)c1ccccc1 | inconclusive: 29.1 µM [cytotoxic, single point] and inconclusive: 20.6 µM [cytotoxic, single point] | 
CCOC(=O)/C(=C/c1ccc(OC(F)F)cc1)C1=Nn2c(nnc2-c2ccc(Cl)cc2)SC1 | active: 3.66 µM | 
Cc1ccc(C)c(C(=O)OCC(=O)NC(=O)NCc2ccccc2)c1 |  | inactive: 2.04%
COc1c(C)cc(C(=O)C2CCCN(C(=O)c3ccc4[nH]ccc4c3)C2)cc1C (stereo unspecified) |  | inactive: -2.45%
CCCCC(CC)Cn1c(N)c(C#N)c2nc3ccccc3nc21 (stereo unspecified) | inconclusive: 35.5 µM [cytotoxic, single point] | 
COc1ccc(/C=C/C(=O)c2ccccc2O)cc1CN1CCOCC1 | inconclusive: 16.4 µM [cytotoxic, single point] | 
O=S(=O)(CC(CN1CCCCC1)N1CCCCC1)c1ccc2ccccc2c1 (stereo unspecified) | inconclusive: 1.84 µM [cytotoxic, full curve] | 
Cc1cc(C(=O)CCl)c(C)n1Cc1ccco1 | inconclusive: 25.9 µM [cytotoxic, single point] | 
NC(=O)c1ccc(NC(=O)C#Cc2ccccc2)cc1 | active: 16.4 µM | 
CCCOc1ccc(N2C(=O)CC(N(CCc3ccc(OC)cc3)C(=O)c3cccc(F)c3)C2=O)cc1 (stereo unspecified) | inconclusive: 32.6 µM [cytotoxic, single point] | 
COCCn1c(C)nnc1SCC(=O)Nc1ccccc1[N+](=O)[O-] |  | inactive: 7.26%
COc1ccc(-c2[nH]c(-c3ccc(C)cc3)nc2SCC(=O)Nc2nccs2)cc1 | inconclusive: 23.1 µM [cytotoxic, single point] | 
COc1ccc(OCC(=O)Nc2ccc(OC)c(S(=O)(=O)N3CCCCC3)c2)cc1 |  | inconclusive: -30.9% [cytotoxic]
O=C(C1=C[C@@H](c2csc3ccccc23)C[C@@H](OCc2ccc(CO)cc2)O1)N1CCN(Cc2ccc3c(c2)OCO3)CC1 | inconclusive: 29.1 µM [cytotoxic, single point] | 
CC(=O)Nc1ccc(N/C=C/C(=O)c2ccccc2)cc1 | inconclusive: 20.6 µM [cytotoxic, single point] | 

Compound | Potency | activity, negative = toxicity
CN(C)S(=O)(=O)c1cccc(NC(=O)COc2ccccc2C(=O)Nc2ccccc2)c1 | inconclusive: 18.4 µM [cytotoxic, single point] | 
CC(C)(C)c1ccc(NC(=S)NCc2cccs2)cc1 | inconclusive: 20.6 µM [cytotoxic, partial curve] | 
COc1ccc(-c2cnc(SCC(=O)Nc3nc(C(C)(C)C)cs3)n2Cc2ccco2)cc1 | inconclusive: 16.4 µM [cytotoxic, partial curve] | 
CCC1=NN(C(=O)CCc2ccccc2)C(O)(C(F)(F)F)C1 (stereo unspecified) | inconclusive: 35.5 µM [cytotoxic, single point] | 
CCOc1ccc(N2C(=O)CC(N(CCc3ccc(S(N)(=O)=O)cc3)C(C)=O)C2=O)cc1 (stereo unspecified) |  | inactive: -2.79%
CN1C(=O)C2(C(C#N)=C(N)Oc3c2oc(CO)cc3=O)c2ccccc21 (stereo unspecified) |  | inactive: 6.9%
COc1ccc(-c2onc(C)c2C)cc1S(=O)(=O)NCCc1ccco1 | inconclusive: 20.6 µM [cytotoxic, single point] | 
CCOC(=O)C=Cc1ccc(C(=O)OCC)[nH]1 | inconclusive: 18.4 µM [cytotoxic, partial curve] | 
O=C(OCCN1CCCCC1)c1cccc(Cl)c1 |  | inactive: 14.3%
CCOc1ccccc1CNS(=O)(=O)c1ccc(-c2cnc(C3CC3)o2)cc1 | active: 1.16 µM | 
COc1ccc(-n2c(C)nc3c(cnn3-c3ccc(C)cc3)c2=O)cc1 |  | inactive: -0.0476%
CSc1ccc(C2C(C#N)=C(N)Oc3cc4c(cc32)OCO4)cc1 (stereo unspecified) | inconclusive: 35.5 µM [cytotoxic, single point] | 
FC(F)(F)c1cccc(CN2CCC(c3cc(-c4cccs4)n[nH]3)CC2)c1 | active: 5.17 µM | 
CN(C)C(CNC(=O)c1cccc(S(=O)(=O)N2CCc3ccccc3C2)c1)c1ccccc1 (stereo unspecified) | inconclusive: 29.1 µM [cytotoxic, single point] | 
O=C(CSc1ncccn1)NC(=O)Cc1ccccc1 |  | inactive: 15.3%
Cc1ccc(-c2noc(C3CCCN(C(=O)c4ccc(C(C)(C)C)cc4)C3)n2)o1 (stereo unspecified) | inconclusive: 16.4 µM [cytotoxic, single point] | 
CSc1nc(NCc2ccccc2)c2c3c(sc2n1)CN(C)CC3 | inconclusive: 17.8 µM [cytotoxic, single point] | 
NS(=O)(=O)c1ccc(CCNC(=O)CN2CCN(Cc3cccc(C(F)(F)F)c3)CC2)cc1 |  | inactive: -15%
CCN(CC)S(=O)(=O)c1ccc(-c2nnc(SCC(=O)N3c4ccccc4CC3C)o2)cc1 (stereo unspecified) |  | inactive: -2.36%
O=C(CCCn1c(=O)c2ccccc2n(Cc2ccccc2)c1=O)NCc1ccco1 | inconclusive: 23.1 µM [cytotoxic, partial curve] | 
COc1ccc(NC(=O)N(C)[C@H]2C[C@H]3c4[nH]c5ccc(-c6ccc(OC)cc6)cc5c4CCN3C(=O)[C@H]2[C@H](C)O)cc1 | active: 16.4 µM | 
Cc1ccc(Cn2cc(C(=O)NN)c(=O)c3ccc(F)cc32)cc1 | inconclusive: 29.1 µM [cytotoxic, single point] | 
Clc1ccc(-c2c[n+](Cc3ccc(Cl)cc3Cl)c3n2CCCCC3)cc1 | active: 16.4 µM | 
CN(C)CCCN(C(=O)c1ccc2ccccc2c1)c1nc2cc3c(cc2s1)OCO3 | inconclusive: 20.6 µM [cytotoxic, single point] | 

Compound | Potency | activity, negative = toxicity
COc1ccc(CCn2c(-c3ccco3)nc3ccccc3c2=O)cc1OC | inconclusive: 25.9 µM [cytotoxic, single point] | 
Cc1cccn2c(=O)c3cc(C(=O)NCc4ccco4)c(=N)n(C4CCCCC4)c3nc12 | inconclusive: 20.6 µM [cytotoxic, single point] | 
CN(CC(=O)Nc1ccc(Cl)c(C(F)(F)F)c1)C(=O)c1ccc(N2CCOCC2)c([N+](=O)[O-])c1 | inconclusive: 29.1 µM [cytotoxic, single point] | 
COc1ccc(-n2nc(C(=O)NCc3ccco3)c3c4ccccc4n(C)c3c2=O)cc1Cl |  | inactive: -15.7%
COc1ccccc1NC(=O)COc1ccc(/C=N/NC(=O)CSCc2ccc(Cl)cc2)cc1 |  | inactive: 14.2%
N#Cc1nc(-c2ccco2)oc1N1CCCC1 |  | inactive: 0.492%
CSc1ccccc1OC1CCN(Cc2ccccc2)CC1 | inconclusive: 14.6 µM [cytotoxic, partial curve] | 
Cn1cccc1CC(=O)NNC(=S)NC(=O)c1ccc(F)cc1 | inconclusive: 29.1 µM [cytotoxic, single point] | 
Nc1ccccc1SCc1c(Cl)cccc1Cl |  | inactive: -4.3%
CCCCOc1ccc(CSC(=N)N)cc1Cl | active: 14.6 µM | 
CCOC(=O)[C@]12CCCC=C1N(CCC1=CCCCC1)C(=O)[C@H](CC(=O)NCc1ccccc1)C2 | inconclusive: 29.1 µM [cytotoxic, single point] | 
CCC(C)(C)C1CCC2(CC1)NC(=O)N(CC(=O)N1CCN(S(=O)(=O)c3cc(C)ccc3C)CC1)C2=O (stereo unspecified) |  | inactive: -0.102%
Cc1ccc(S(=O)(=O)N(CC(=O)N2CCc3ccccc3C2)c2ccc(Cl)c(Cl)c2)cc1 |  | inactive: -9.87%
CC1=C/C(=C/N(C)C)C(=O)O1 |  | inactive: -3.89%
Clc1ccc2[nH]c3c(N4CCC5(CC4)OCCO5)ncnc3c2c1 | active: 8.2 µM | 
Cc1cc(=O)oc2cc(O[C@@H]3O[C@H](CO)[C@@H](O)[C@H](O)[C@H]3O)ccc12 |  | inactive: 10.3%
COc1ccc(NC(=O)c2ccc(NC(=O)CN3CCN(c4ccc(O)cc4)CC3)cc2)cc1 | inconclusive: 20.6 µM [cytotoxic, single point] | 
Cc1cc(C(=O)Nc2sc(C)c(-c3ccc(F)cc3)c2C(N)=O)no1 |  | inactive: 0.0947%
COC(=O)c1c(NC(=O)CN2CCN(c3ncccn3)CC2)sc(C(N)=O)c1C | inconclusive: 6.51 µM [cytotoxic, full curve, poor fit] | 
CC(C)(C)C(O)CN1CCCC1 (stereo unspecified) |  | inactive: 1.32%
CC(C)(C)c1csc(NC(=O)c2ccc(Cl)s2)n1 | inconclusive: 29.1 µM [cytotoxic, single point] | 
Cc1ccccc1OCC(=O)N/N=C/c1ccc(Sc2nc3ccccc3s2)o1 |  | inconclusive: -32.1% [cytotoxic]
C[C@@H]1CC=C[C@@H]2[C@H]1C(=O)N(Cc1ccccc1)[C@H]2c1ccccc1Br | inconclusive: 29.1 µM [cytotoxic, single point] | 
